We go through 26 molecules from PubChem BioAssay AID1508624 (National Center for Advancing Translational Sciences (NCATS), 2021).

The campaign covered roughly 48,000 compounds. About 120 (0.25%) were called active. Another 4% or so got no clear call; they are omitted. Calls come from the whole dose curve; as a rule, active = well fitted activation curve with a large enough effect; inconclusive = small, poorly fitted or top-dose-only effect, or another doubt; inactive = no such curve, though single readings can be large or run the other way. Only a part is listed here, and it is no random draw. Entries without a call were filed so in the source.

This assay in a line: Primary qHTS for Identification of Small Molecule Activators of Huntingtin-Antisense Promoter Activity. Note: nearly all actives have a fitted effect of over 55% in size. Conditions: HEK293 HTT-AS promoter firefly luciferase reporter, 24 h; activity change, positive = activation: at 57.5 µM (top of the series), percent change from vehicle, -100% = no light. Summed up:
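HEK293 Fluc reporter, 2,500 cells/well, 24 h pre-culture; cpds up to 57.5 uM final, 24 h 37 degrees C; Dual-Glo, 10 min RT; normalized vehicle = 0%, zero RLU = -100%.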
On to `CCc1ccc(NC(=O)CC2C(=O)N(c3ccc(OC)cc3)C(=O)N2Cc2cccs2)cc1` (stereo unspecified), for which the activity change, positive = activation was -31.9%.

As to `Cc1c(CC(=O)N2CCCCC2)c(=O)oc2cc(O)ccc12`, the activity change, positive = activation is 1.94%.

Take `COc1cccc(-c2nc(SCc3cccc(Br)c3)n3[nH]c(=O)cc3n2)c1`: the activity change, positive = activation was -0.804%.

Consider `COc1cc2c(cc1OC)C(c1ccc(Cl)cc1)N(c1cccc(C#N)c1)C(=O)C2` (stereo unspecified), for which the activity change, positive = activation is -24.4%.

As for `Cc1ccc(S(=O)(=O)Nc2cccc(-c3ccc(N4CCCC4)nn3)c2)c(C)c1`, the activity change, positive = activation was -1.71%.

For the molecule `Cc1ccc(-n2nc(C)c(C(=O)NCCCN3CCN(c4cccc(Cl)c4)CC3)c2-n2cccc2)cc1`, the activity change, positive = activation was -13%.

`N#Cc1ccccc1OCC(=O)N1CCN(c2ccccc2)CC1`: the activity change, positive = activation was determined as 9.75%.

In the case of `CNc1nccc(-c2cccnc2Oc2cc(C(=O)Nc3cccc(C(F)(F)F)c3)ccc2C)n1`, the “activity change, positive = activation” value was inactive: -24.8%.

On to `CCOc1ccc(NC(=O)CC2C(=O)N(c3ccc(Cl)cc3)C(=O)N2Cc2cccs2)cc1` (stereo unspecified), for which the activity change, positive = activation was -17.6%.

In the case of `Cc1ccccc1OCCn1c(-c2ccc(Cl)cc2)nc2ccccc2c1=O`, the activity change, positive = activation amounted to 7.47%.

Consider `Cc1ccc(CCNS(=O)(=O)c2ccc3c(c2)CC(C)N3C(=O)C2CCC2)cc1` (stereo unspecified), for which the activity change, positive = activation is -6.6%.

For `COc1ccccc1CN1C(=O)CN(C2CCCCCC2)C(=O)C1c1ccc(F)cc1` (stereo unspecified), the activity change, positive = activation was -21.7%.

Regarding `COc1cc(C)cc2oc(=O)c(CC(=O)NCCc3ccc(Cl)cc3)c(C)c12`, the activity change, positive = activation amounted to 6.63%.

As to `COc1cccc(CNC(=O)Cc2c(C)c3ccc(OC)c(C)c3oc2=O)c1`, the activity change, positive = activation is 1.44%.

As to `COc1ccc(C2=C(N3CCN(c4cccc(C)c4)C(C)C3)c3ccccc3C2=O)cc1` (stereo unspecified), the activity change, positive = activation turned out to be 38.3%.

As to `CCOc1ccc(CCNC(=O)CCCc2nnc3n(CC)c(=O)c4sccc4n23)cc1OCC`, the “activity change, positive = activation” value is inactive: -2.65%.

On to `CCc1ccc(S(=O)(=O)c2cn(Cc3ccccc3F)c3cc(OC)c(OC)cc3c2=O)cc1`, for which the “activity change, positive = activation” value was inactive: -19.7%.

For the molecule `COc1ccc(Br)cc1CNC(=O)c1ccc2c(c1)nc1n2CCC(C)C1` (stereo unspecified), the “activity change, positive = activation” value was inactive: -5.14%.

With `CCOC(=O)c1c(-c2ccc(C)cc2)csc1NC(=O)c1cc(-c2ccc(C)c(F)c2)on1`, the activity change, positive = activation was -4.4%.

`CCc1ccccc1NC(=O)c1cc(-c2ccc(OC)cc2)on1`: the activity change, positive = activation was determined as 11.8%.

In the case of `Cc1oc2c(cc(NS(=O)(=O)c3ccc(Br)cc3)c3ccccc32)c1C(=O)OCc1ccccc1`, the activity change, positive = activation is -7.79%.

Take `CC(=O)Nc1ccc(S(=O)(=O)N2CCC(N3CCN(Cc4ccc(C)cc4)C(=O)C3=O)CC2)cc1`: the activity change, positive = activation was determined as 8.73%.

For the molecule `CC1Cc2cc(S(=O)(=O)CCC(=O)Nc3cccc(F)c3)ccc2N1C(=O)C1CC1` (stereo unspecified), the activity change, positive = activation was -24.6%.

In the case of `O=C(Cn1ncn2c(cc3cc(F)ccc32)c1=O)NC1CCCCC1`, the activity change, positive = activation was -1.25%.

For `COC(=O)c1ccccc1NC(=O)c1cc2ccccn2n1`, the activity change, positive = activation was determined as 40.5%.

Consider `O=C(COc1ccc(Cl)cc1)NCCc1csc(-c2ccc(C(F)(F)F)cc2)n1`, for which the “activity change, positive = activation” value is inactive: -30%.
